Measurements published in article PMC4336329 (PLoS ONE, 2015).
Among all 310,000 compounds or so, about 2,200 (0.71%) showed an effect of 50% or more. The effect is printed as a negative number. The list shows a part of the results.

Molecular target: human ether-à-go-go-related gene (hERG) potassium channel (human, UniProt Q12809)
Assay: primary screen, population patch clamp on CHO cells stably expressing hERG

human ether-à-go-go-related gene (hERG) potassium channel, sequence (Q12809 whole entry, looked up): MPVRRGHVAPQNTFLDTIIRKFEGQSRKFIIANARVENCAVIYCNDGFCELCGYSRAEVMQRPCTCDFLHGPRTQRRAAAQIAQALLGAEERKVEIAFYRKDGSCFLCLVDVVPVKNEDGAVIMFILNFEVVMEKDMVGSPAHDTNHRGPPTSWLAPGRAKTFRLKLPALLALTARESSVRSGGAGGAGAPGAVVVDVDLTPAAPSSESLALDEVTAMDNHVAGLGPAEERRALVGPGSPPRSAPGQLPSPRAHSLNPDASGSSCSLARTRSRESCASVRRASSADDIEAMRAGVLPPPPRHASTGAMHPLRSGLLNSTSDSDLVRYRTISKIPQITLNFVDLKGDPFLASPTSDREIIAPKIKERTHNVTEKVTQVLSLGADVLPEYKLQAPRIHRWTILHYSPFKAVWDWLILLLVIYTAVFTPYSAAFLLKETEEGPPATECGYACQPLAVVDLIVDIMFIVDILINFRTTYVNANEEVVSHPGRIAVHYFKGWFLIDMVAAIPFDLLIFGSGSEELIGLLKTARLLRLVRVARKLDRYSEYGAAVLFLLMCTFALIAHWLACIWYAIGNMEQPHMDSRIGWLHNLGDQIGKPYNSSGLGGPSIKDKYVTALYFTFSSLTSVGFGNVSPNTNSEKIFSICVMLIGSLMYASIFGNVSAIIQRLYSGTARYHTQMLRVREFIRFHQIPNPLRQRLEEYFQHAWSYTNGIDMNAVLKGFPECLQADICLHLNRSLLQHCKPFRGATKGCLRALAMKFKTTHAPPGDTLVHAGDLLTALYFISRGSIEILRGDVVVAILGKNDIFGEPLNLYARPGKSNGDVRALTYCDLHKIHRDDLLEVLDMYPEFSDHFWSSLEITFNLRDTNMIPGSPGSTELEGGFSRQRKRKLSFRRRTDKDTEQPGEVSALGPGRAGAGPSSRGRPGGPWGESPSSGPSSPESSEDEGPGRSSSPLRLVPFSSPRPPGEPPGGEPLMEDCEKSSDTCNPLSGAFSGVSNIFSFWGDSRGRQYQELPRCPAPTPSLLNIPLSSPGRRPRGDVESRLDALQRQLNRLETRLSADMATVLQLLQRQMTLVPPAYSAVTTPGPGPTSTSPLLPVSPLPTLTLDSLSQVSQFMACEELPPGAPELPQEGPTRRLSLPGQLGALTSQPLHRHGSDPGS

Compound | hERG current change (%, negative = inhibition) at 1uM [%]
Cn1cccc1/C=C1\SC(=O)N(CC(=O)Nc2ccc(F)cc2)C1=O | 9.76
COc1ccc(C(=O)NCc2cccnc2)cc1 | -4.35
c1ccc(C2CC(c3cccs3)=NN2c2ccccc2)cc1 (stereo not drawn) | 11.7
Cc1cc(NC(=O)CSc2nnc(-c3ccc(S(=O)(=O)N4CCCC4)cc3)n2C)no1 | 11.7
O=C(NC1CC1)C1=C[C@@H](C2CC2)C[C@@H](OCCCCO)O1 | 1.32
CCOC(=O)c1c(C)c(C(=O)NCCCN2CCCC2=O)c(C)n1CC | 1.54
CC(=O)N1CCOc2ccc(S(=O)(=O)N3CCC(C(=O)Nc4cc(C)ccc4C)CC3)cc21 | 7.31
O=C(NC1CCCCC1)C1CCCN(S(=O)(=O)c2ccc(F)cc2)C1 (stereo not drawn) | 4.71
CCC1=[N+](CC(=O)c2ccc(C)cc2)CCn2cccc21.[Br-] | 12.5
CC[C@H]1CN(C)CCc2c([nH]c3ccccc23)C(=O)C[C@@H]1/C(=C\OC)C(=O)OC | -53.3
COc1ccc(OC)c(-n2cc3c(=O)n(C)c(=O)n(C)c3c2)c1 | -4.49
COc1ccc(/C=C\C(=O)NCc2ccc3[nH]c(C)cc3c2)cc1OC | 6.87
COc1cccc(CNCCc2ccc3c(c2)OCO3)c1OC.O=C(O)C(=O)O | 5.32
Cc1c(Cl)cccc1NC(=S)NCCC(C)C | 16.7
COc1ccc(-n2c(SC)nnc2-c2c[nH]c3ccccc23)cc1 | 2.87
Cc1ccc(/C=C/C(=O)NCc2ccncc2)cc1 | 2.86
CCOc1ncccc1C(=O)NCc1ccc(OC)cc1 | 16.8
CC(C)Cc1nnc(NC(=O)CCC(=O)N2CCN(Cc3ccc(Cl)cc3)CC2)s1 | 14.6
O=[N+]([O-])c1cc(/C=N\Nc2ccccn2)ccc1Cl | 11.1

Compound | hERG current change (%, negative = inhibition) at 1uM [%]
OCC[C@@H]1C[C@H](O)[C@@H](O)[C@]2(Cc3ccccc3O2)O1 | 4.27
CSc1nccc(Oc2cncc(Cl)c2)n1 | 10.5
CCC(C)(C)NC(=O)CN(C(=O)CCC(=O)Nc1nccs1)c1ccc2c(c1)OCO2 | 4.62
Cc1ccc(C(=O)OCCn2cc(C#N)c(=O)[nH]c2=O)cc1 | 11.6
COc1ccc(N/C=C(\C#N)c2nc3ccccc3n2C)c(OC)c1 | 4.3
CCOC(=O)N1CCN(C(=O)c2cccc(OC)c2OC)CC1 | 14
N#C/C(=C(/O)COC(=O)c1ccc(Cl)c(S(=O)(=O)N2CCOCC2)c1)c1nc2ccccc2[nH]1 | 6.33
CC(C)CCN(C(=O)Cc1ccccc1F)c1c(N)n(Cc2ccccc2)c(=O)[nH]c1=O | 3.85
O=C(CSc1nnc(CNC(=O)c2ccco2)o1)Nc1nc2ccccc2s1 | 12.1
CCc1nnc(NC(=O)CN2CCN(S(C)(=O)=O)CC2)s1 | -5.51
CSCCC(NS(=O)(=O)c1ccc(Cl)cc1)C(=O)OCC(=O)N1CCCc2ccccc21 (stereo not drawn) | 5.83
COc1ccc(OCC(=O)NNC(=O)Nc2cccc(Cl)c2)cc1 | 16.1
O=c1n(Cc2ccccc2)nc2n1-c1ccccc1SC2 | 9.1
CC1(C(=O)N/N=C/c2ccccc2)CC1(Br)Br (stereo not drawn) | 9.54
Cc1ccc(/C(N)=N/OC(=O)c2ccco2)cc1 | 15.8
CC(=O)c1ccc(NC(=S)N2CCN(CCO)CC2)cc1 | 10.2
O=C(CCC(=O)N(CC(=O)NC1CCCCC1)c1ccc(F)cc1)Nc1ccccn1 | 4.77
COCCOC(=O)c1c(NC(=O)CN2c3ccccc3CC2C)sc(C(N)=O)c1C (stereo not drawn) | 6.88
Cc1nn(Cc2ccc(Cl)cc2)c(C)c1N | 13.5

Compound | hERG current change (%, negative = inhibition) at 1uM [%]
CCc1ccc(NCCC(=O)c2ccc(Br)cc2)cc1 | 43.2
CC(C)OCCCNC(=O)NC(=O)c1ccc(Cl)cc1 | 6.6
Cc1ccc(-c2nc(S(=O)(=O)c3ccc(C)cc3)c(N(C)C)o2)cc1 | 3.75
COC(=O)c1ccccc1NC(=O)CSCC(=O)Nc1ccccc1OC | 4.96
CC(OC(=O)Cn1cnc2c1c(=O)n(C)c(=O)n2C)C(=O)NCc1ccccc1 (stereo not drawn) | 17
C#CCOCCOCCOCCNc1nc(N2CCN(C(=O)Cn3cc(CCCC[NH3+])nn3)CC2)nc(N2CCN(C(=O)Cn3cc(CCCC[NH3+])nn3)CC2)n1.[Cl-] | 8.09
CCOC(=O)C1CCN(C(=O)CCc2nnc3ccc(N4CCN(C)CC4)nn23)CC1 | 7.74
CCc1nnc(NC(=O)CN2C(=O)/C(=C/c3cc(OC)c(OC)c(OC)c3)SC2=S)s1 | 14.9
Cc1cccc2cc(C#N)c(SCC(=O)NCc3cccs3)nc12 | 6.43
COc1ccc2c(c1)cc1n2CCN2CCCN=C12.Cl | -18.4
Cc1cc(NC(=O)CCN2C(=O)/C(=C/c3ccccc3Cl)SC2=S)no1 | 12.3
CCc1ccc(CCC(=O)Nc2nc(CC(C)=O)ns2)o1 | 17.6
N/C(=N\OC(=O)CCCN1C(=O)c2ccccc2C1=O)c1ccc(Br)cc1 | 8.42
Cc1sc2ncn(CC(=O)NCC(=O)N(C)Cc3ccccc3)c(=O)c2c1C | 3.63
CC(C)Cn1c(C23CC4CC(CC(C4)C2)C3)n[nH]c1=S | 10.1
Cc1ccc(/C=N/Nc2ccc(C(=O)O)cc2)o1 | 1.52
CCN(C(=O)COC(=O)c1ccc(C=O)cc1)c1c(N)n(Cc2ccccc2)c(=O)[nH]c1=O | 15.3
O=C(Nc1ccccc1[N+](=O)[O-])c1cccnc1Cl | 7.57
Cc1cc(C(=O)Nc2ccc(Br)cn2)sc1C | 14.7
